The values below come from article PMC9456008, “Enantiocontrolled Preparation of ϒ-Substituted Cyclohexenones: Synthesis and Kinase Activity Assays of Cyclopropyl-Fused Cyclohexane Nucleosides” (International Journal of Molecular Sciences, 2022).

For assay [1], the system named is herpes simplex virus type 2 (HSV-2) strain G. Put plainly: Inhibition of virus-induced cytopathicity in HEL cell cultures, HSV-2. It counts as cell-based. The conditions noted are these: for EC50: read-out: Antiviral EC50 Herpes simplex virus-2 (G).
Assay [2] has as its system herpes simplex virus type 1 (HSV-1) strain KOS. Briefly: Inhibition of virus-induced cytopathicity in HEL cell cultures, HSV-1. The class given is cell-based. The conditions noted are these: for EC50: read-out: Antiviral EC50 Herpes simplex virus-1 (KOS).
Where [3] appears, read: Human alphaherpesvirus 2, HEL cell cultures, reduces virus-induced cytopathogenic effect by 50%.
[4] abbreviates: Human alphaherpesvirus 1, HEL cell cultures, reduces virus-induced cytopathogenic effect by 50%.
The mark [5] stands for this setting: HEL cell cultures, at subtoxic concentrations (~100 μM).

Molecules are shown by their SMILES. Where two headings read alike, the source gives them in different places.

As to `Nc1nc2c(ncn2COCCO)c(=O)[nH]1` [Acyclovir], the EC50 in assay [1] (setting [3]) and in assay [2] (setting [4]) was 0.4 µM each time.

Regarding `Nc1ccn(C2CCC(CO)C3CC32)c(=O)n1` (stereo not drawn) [Compound 2e, 4-Amino-1-[(1′S,2′S,5′R,6′R)-5′-(hydroxymethyl)bicyclo [4.1.0]hept-2′-yl]pyrimidin-2(1H)-one], the “Antiherpetic activity HSV-2 (G) (in words)” value in assay [1] (setting [5]) is reported as “did not show significant antiviral activity”. For the same molecule, the EC50 is more than 100 µM in assay [1] (Human alphaherpesvirus 2, HEL) and more than 100 µM in assay [2] (Human alphaherpesvirus 1, HEL). Further, the “Antiherpetic activity HSV-1 (KOS) (in words)” value in assay [2] (setting [5]) is “did not show significant antiviral activity”.

For `O=c1[nH]c(=O)n([C@H]2C[C@H](O)[C@@H](CO)O2)cc1/C=C/Br` [Brivudin], the EC50 in assay [2] (setting [4]) was 0.04 µM.

Regarding `Nc1nc(O)c2ncn(COC(CO)CO)c2n1` [Ganciclovir], the EC50 in assay [1] (setting [3]) was found to be 0.05 µM; in assay [2] (setting [4]), 0.02 µM.

For `Nc1ccn(C[C@@H](CO)OCP(=O)(O)O)c(=O)n1` [Cidofovir], the EC50 in assay [1] (setting [3]) was determined as 1.4 µM; in assay [2] (setting [4]) it was 2 µM.
